From a collection of fitness landscapes (doi:10.1016/j.celrep.2020.107928)
The full ranking holds about 81,000 sequences; the median of “one-hybrid fitness for binding parS DNA” is about -0.17, and the highest 2% start at about 0.51. The list shows a part of the results.

B1: Caulobacter ParB omega fusion; a variant is named by its letters at X, in order, B8GW30 (parent)
chain: MESVVVGEPGMSEGRRGLGRGLSALLGEVDAAPAQAPGEQLGGSREAPIEILQRNPDQPRRTFREEDLEDLSNSIREKGVLQPILVRPSPDTAGEYQIVAGERAWRAAQRAGLKTVPIMVRELDDLAVLEIGIIENVQRADLNVLEEALSYKVLMEKFERTQENIAQTIGKSXSHVANXMRLLXLPDEVQSYLVSGELTAXHARAIAAAADPVALAKQIIEGGLSVRETEALARKAPNLSAGKSKGGRPPRVKDTDTQALESDLSSVLGLDVSIDHRGSTGTLTITYATLEQLDDLCNRLTRGI

Variants of: B1
Experiment: one-hybrid fitness for binding parS DNA (scaled: cognate 1, non-cognate 0); higher = stronger binding
Conditions: with parS DNA site
Summary of the method: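 Selection: bacterial one-hybrid in E. coli USO, HIS3 reporter with the site 19 bp from the promoter, 48 hours at 37°C on M9-minus-histidine plus 0.1 mM IPTG and 5 mM 3-AT. Libraries were Caulobacter ParB with four randomised specificity codons, sequenced on Illumina before and after selection. Fitness is the rescaled log change in variant-to-wild-type read ratio, anchored to the cognate and non-cognate sites.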

Row | Variant | one-hybrid fitness for binding parS DNA
1 | QQFY | ≤ 0.2
2 | TFTG | ≤ 0.2
3 | HRRY | ≤ 0.2
4 | CCHR | ≤ 0.2
5 | TCNT | ≤ 0.2
6 | QQKW | ≤ 0.2
7 | ELKC | ≤ 0.2
8 | AADM | ≤ 0.2
9 | DRDL | ≤ 0.2
10 | APNC | ≤ 0.2
11 | DLWR | ≤ 0.2
12 | ASQE | ≤ 0.2
13 | TDYN | ≤ 0.2
14 | AEHL | ≤ 0.2
15 | LLNE | ≤ 0.2
16 | PPPN | ≤ 0.2
17 | CCKT | ≤ 0.2
18 | APKT | ≤ 0.2
19 | QPIV | ≤ 0.2
20 | QRCN | ≤ 0.2
21 | LDDL | ≤ 0.2
22 | HLMS | ≤ 0.2
23 | MFAV | ≤ 0.2
24 | QLQS | ≤ 0.2

Row | Variant | one-hybrid fitness for binding parS DNA
25 | KLAS | ≤ 0.2
26 | WNGR | ≤ 0.2
27 | SFTR | ≤ 0.2
28 | PHGG | ≤ 0.2
29 | HAQN | ≤ 0.2
30 | WKQG | ≤ 0.2
31 | QVCP | ≤ 0.2
32 | SCKV | ≤ 0.2
33 | TADM | ≤ 0.2
34 | FDVS | ≤ 0.2
35 | VSSG | ≤ 0.2
36 | WIKE | ≤ 0.2
37 | PDFG | ≤ 0.2
38 | PFFD | ≤ 0.2
39 | RVMF | 0.243
40 | LTRN | ≤ 0.2
41 | PCWT | ≤ 0.2
42 | HEKT | ≤ 0.2
43 | NLFS | ≤ 0.2
44 | EFST | ≤ 0.2
45 | DPVE | ≤ 0.2
46 | DKLV | ≤ 0.2
47 | PWTS | ≤ 0.2
48 | HRWG | ≤ 0.2

Row | Variant | one-hybrid fitness for binding parS DNA
49 | RPCV | ≤ 0.2
50 | RWDE | ≤ 0.2
51 | LMTH | ≤ 0.2
52 | PRTI | ≤ 0.2
53 | TQDL | ≤ 0.2
54 | WCKC | ≤ 0.2
55 | PSEW | ≤ 0.2
56 | QDKR | ≤ 0.2
57 | NLQG | ≤ 0.2
58 | TRRM | ≤ 0.2
59 | YAYS | ≤ 0.2
60 | SYTS | ≤ 0.2
61 | YKAY | ≤ 0.2
62 | KNER | ≤ 0.2
63 | VRDH | ≤ 0.2
64 | MYWR | ≤ 0.2
65 | LWVD | ≤ 0.2
66 | DNDK | ≤ 0.2
67 | SRGN | ≤ 0.2
68 | AAAT | ≤ 0.2
69 | ASCD | ≤ 0.2
70 | LNMQ | ≤ 0.2
71 | YAQS | ≤ 0.2
72 | ADAM | ≤ 0.2

Row | Variant | one-hybrid fitness for binding parS DNA
73 | RIQT | 0.886
74 | ANMN | ≤ 0.2
75 | ATCG | ≤ 0.2
76 | QQFF | ≤ 0.2
77 | RDVR | ≤ 0.2
78 | VCTD | ≤ 0.2
79 | ATLE | ≤ 0.2
80 | STPE | ≤ 0.2
81 | ARKV | ≤ 0.2
82 | RVCG | 0.972
83 | STNY | ≤ 0.2
84 | EQPT | ≤ 0.2
85 | FFIG | ≤ 0.2
86 | TILC | ≤ 0.2
87 | GPVN | ≤ 0.2
88 | RIFW | 0.215
89 | ERAA | ≤ 0.2
90 | CKKR | ≤ 0.2
91 | AAVT | ≤ 0.2
92 | REGC | ≤ 0.2
93 | RSHW | 0.213
94 | HWRV | ≤ 0.2
95 | HKLS | ≤ 0.2
96 | PNIC | ≤ 0.2

Row | Variant | one-hybrid fitness for binding parS DNA
97 | RYMT | 0.887
98 | EIRR | ≤ 0.2
99 | EFTC | ≤ 0.2
100 | NSCD | ≤ 0.2
101 | MPPL | ≤ 0.2
102 | MTSR | ≤ 0.2
103 | VKGR | ≤ 0.2
104 | LRIG | ≤ 0.2
105 | MMDT | ≤ 0.2
106 | GSVP | ≤ 0.2
107 | KDAD | ≤ 0.2
108 | SFHC | ≤ 0.2
109 | SMNL | ≤ 0.2
110 | LWYS | ≤ 0.2
111 | SPHG | ≤ 0.2
112 | LGVR | ≤ 0.2
113 | MAYI | ≤ 0.2
114 | KPVA | ≤ 0.2
115 | AFAS | ≤ 0.2
116 | TGRH | ≤ 0.2
117 | TSYM | ≤ 0.2
118 | VFSC | ≤ 0.2
119 | TYTK | ≤ 0.2
120 | DTEY | ≤ 0.2

Row | Variant | one-hybrid fitness for binding parS DNA
121 | MNSS | ≤ 0.2
122 | GNHA | ≤ 0.2
123 | DHLS | ≤ 0.2
124 | QSEE | ≤ 0.2
125 | RNSL | ≤ 0.2
126 | GDIL | ≤ 0.2
127 | QHQN | ≤ 0.2
128 | RGQW | ≤ 0.2
129 | AYFL | ≤ 0.2
130 | GGRI | ≤ 0.2
131 | QKYA | ≤ 0.2
132 | LSSY | ≤ 0.2
133 | LDVA | ≤ 0.2
134 | TWST | ≤ 0.2
135 | TKFN | ≤ 0.2
136 | RAFP | ≤ 0.2
137 | KRDW | ≤ 0.2
138 | PPLS | ≤ 0.2
139 | TMAS | ≤ 0.2
140 | TSKY | ≤ 0.2
141 | HCGS | ≤ 0.2
142 | SHNE | ≤ 0.2
143 | WLLS | ≤ 0.2
144 | ANAG | ≤ 0.2

Row | Variant | one-hybrid fitness for binding parS DNA
145 | QHQW | ≤ 0.2
146 | EMKT | ≤ 0.2
147 | KLST | ≤ 0.2
148 | NDSN | ≤ 0.2
149 | QKDS | ≤ 0.2
150 | VSNM | ≤ 0.2
151 | EYHK | ≤ 0.2
152 | FHTW | ≤ 0.2
153 | AQAM | ≤ 0.2
154 | DWMG | ≤ 0.2
155 | PIMG | ≤ 0.2
156 | RAGV | ≤ 0.2
157 | QYTN | ≤ 0.2
158 | PFDP | ≤ 0.2
159 | DRAT | ≤ 0.2
160 | GIAW | ≤ 0.2
161 | EALF | ≤ 0.2
162 | GQIG | ≤ 0.2
163 | HHWS | ≤ 0.2
164 | QKHI | ≤ 0.2
165 | RQNW | 0.271
166 | WKND | ≤ 0.2
167 | NLAY | ≤ 0.2
168 | LGTL | ≤ 0.2

Row | Variant | one-hybrid fitness for binding parS DNA
169 | SPAI | ≤ 0.2
170 | SMPN | ≤ 0.2
171 | MPWI | ≤ 0.2
172 | KVST | ≤ 0.2
173 | GVTR | ≤ 0.2
174 | QLCY | ≤ 0.2
175 | QIPQ | ≤ 0.2
176 | VCWT | ≤ 0.2
177 | HNWR | ≤ 0.2
178 | AIVG | ≤ 0.2
179 | MALE | ≤ 0.2
180 | PPEY | ≤ 0.2
181 | SLVN | ≤ 0.2
182 | QEMR | ≤ 0.2
183 | VEVT | ≤ 0.2
184 | NPTK | ≤ 0.2
185 | RNKM | 0.363
186 | PDIS | ≤ 0.2
187 | RWVG | 0.584
188 | YPRL | ≤ 0.2
189 | LNKG | ≤ 0.2
190 | MKIS | ≤ 0.2
191 | SEDT | ≤ 0.2
192 | DVLW | ≤ 0.2

Row | Variant | one-hybrid fitness for binding parS DNA
193 | QRKD | ≤ 0.2
194 | VHWV | ≤ 0.2
195 | PMHV | ≤ 0.2
196 | PAYS | ≤ 0.2
197 | DASC | ≤ 0.2
198 | HVRT | ≤ 0.2
199 | LTGE | ≤ 0.2
200 | REGN | ≤ 0.2
201 | YICC | ≤ 0.2
202 | DPNL | ≤ 0.2
203 | KSYN | ≤ 0.2
204 | DNEF | ≤ 0.2
205 | IIHS | ≤ 0.2
206 | RWNL | ≤ 0.2
207 | GPVQ | ≤ 0.2
208 | YNHY | ≤ 0.2
209 | LSLV | ≤ 0.2
210 | APAC | ≤ 0.2
211 | VTWS | ≤ 0.2
212 | VSYL | ≤ 0.2
213 | EATR | ≤ 0.2
214 | TQVS | ≤ 0.2
215 | TVLH | ≤ 0.2
216 | NAGR | ≤ 0.2

Row | Variant | one-hybrid fitness for binding parS DNA
217 | AESW | ≤ 0.2
218 | PPRI | ≤ 0.2
219 | HVVT | ≤ 0.2
220 | HTGT | ≤ 0.2
221 | MELC | ≤ 0.2
222 | KKST | ≤ 0.2
223 | KIIR | ≤ 0.2
224 | SAIE | ≤ 0.2
225 | PAIP | ≤ 0.2
226 | PIHW | ≤ 0.2
227 | RKPV | ≤ 0.2
228 | CETT | ≤ 0.2
229 | LYIR | ≤ 0.2
230 | WNRS | ≤ 0.2
231 | NPMV | ≤ 0.2
232 | QQAS | ≤ 0.2
233 | AGYW | ≤ 0.2
234 | RGLV | ≤ 0.2
235 | SNDL | ≤ 0.2
236 | TSTN | ≤ 0.2
237 | VANP | ≤ 0.2
238 | QTKH | ≤ 0.2
239 | AVSI | ≤ 0.2
240 | LLLF | ≤ 0.2

Row | Variant | one-hybrid fitness for binding parS DNA
241 | FFPC | ≤ 0.2
242 | LYPY | ≤ 0.2
243 | HECR | ≤ 0.2
244 | ALRF | ≤ 0.2
245 | RKAC | 0.878
246 | LLQH | ≤ 0.2
247 | GYIT | ≤ 0.2
248 | LATC | ≤ 0.2
249 | IEHV | ≤ 0.2
250 | QDMR | ≤ 0.2
251 | HTNL | ≤ 0.2
252 | KRVE | ≤ 0.2
253 | PTIL | ≤ 0.2
254 | PYNT | ≤ 0.2
255 | EGCR | ≤ 0.2
256 | VLVK | ≤ 0.2
257 | KGVG | ≤ 0.2
258 | HQNR | ≤ 0.2
259 | INAV | ≤ 0.2
260 | SRAK | ≤ 0.2
261 | CEWR | ≤ 0.2
262 | ASLL | ≤ 0.2
263 | RRQL | ≤ 0.2
264 | VWYG | ≤ 0.2

Row | Variant | one-hybrid fitness for binding parS DNA
265 | YSAK | ≤ 0.2
266 | AIQS | ≤ 0.2
267 | KFMF | ≤ 0.2
268 | CKRY | ≤ 0.2
269 | MEVA | ≤ 0.2
270 | PRTV | ≤ 0.2
271 | LNTY | ≤ 0.2
272 | SLQT | ≤ 0.2
273 | KNTD | ≤ 0.2
274 | IVKY | ≤ 0.2
275 | GRAP | ≤ 0.2
276 | AGAV | ≤ 0.2
277 | VYWR | ≤ 0.2
278 | RQTT | 0.929
279 | ANNV | ≤ 0.2
280 | VERG | ≤ 0.2
281 | QNVE | ≤ 0.2
282 | VQLG | ≤ 0.2
283 | LQTC | ≤ 0.2
284 | VKNE | ≤ 0.2
285 | NADF | ≤ 0.2
286 | AFPG | ≤ 0.2
287 | GDDG | ≤ 0.2
288 | LERR | ≤ 0.2

Row | Variant | one-hybrid fitness for binding parS DNA
289 | THGS | ≤ 0.2
290 | PFNG | ≤ 0.2
291 | IRNT | ≤ 0.2
292 | PFRF | ≤ 0.2
293 | RQHM | 0.325
294 | TSVD | ≤ 0.2
295 | YHAT | ≤ 0.2
296 | PQRV | ≤ 0.2
297 | SQPV | ≤ 0.2
298 | QQYN | ≤ 0.2
299 | HTAP | ≤ 0.2
300 | RIGC | 0.955
301 | TDLG | ≤ 0.2
302 | LMYT | ≤ 0.2
303 | YHLP | ≤ 0.2
304 | VKHI | ≤ 0.2
305 | TAKM | ≤ 0.2
306 | VHVA | ≤ 0.2
